# Test results: ChEMBL document CHEMBL1201862, “PubChem BioAssay data set” (2004)
# Values joined by “and” are separate entries in the source; they are usually repeats but may differ in a detail not shown here. Identical values can stand only once. Counter-ions that a name gives are not always drawn.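 Method: 48-hour compound exposure of cells in 96-well plates, five concentrations, linear interpolation of endpoints. GI50 is the concentration that inhibits growth by half.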 Active and inactive are the calls of the source. Rule as the data show it: active = GI50 up to about 1.1 µM and inactive = higher.
# Test system: NCI-H322M
# Assay: growth of human tumour cells (NCI), 48 h
row,SMILES,GI50
1,CCC(=O)C12OC3OC(C)(C)OC3C1OC(C)(C)O2 (stereo not drawn),inactive: > 100 µM
2,COC1=CC(=O)[C@@]2(C)C(C)[C@H](c3ccccc3)[C@H]2C1=O (stereo partly drawn),inactive: > 100 µM
3,O=c1ncccn1[C@@H]1O[C@H](CO)[C@@H](O)[C@@H]1F,inactive: > 100 µM and inactive: > 95.1 µM
4,Nc1nc(N)c2cc(Sc3cccc(C(F)(F)F)c3)ccc2n1 [WR-159412],inactive: 3.13 µM
5,CCO[C@@]12CCC3CC4CC[C@@](OCC)(O1)C4C32 (stereo partly drawn),inactive: > 100 µM
6,O=C(c1cccs1)N1CCc2ccccc2C1,inactive: > 100 µM
7,COC(=O)/C=C/c1cc(OC)c2c(c1)C(C(=O)OC)C(c1ccc(OC)c(OC)c1)O2 (stereo not drawn),inactive: 55.5 µM
8,CCOC(=O)c1[nH]c(COC(C)=O)c(CCCOC(C)=O)c1CCCOC(C)=O,inactive: > 100 µM
9,CN(C)c1nc2sc3c(c2c(=O)o1)CCCC3,inactive: > 100 µM
10,O=C1c2cc([N+](=O)[O-])sc2C(=O)c2c([N+](=O)[O-])csc21,inactive: 1.8 µM
11,C=C(C=O)c1c2c(nc3ccccc13)C(=O)c1ccccc1C2=O,inactive: 1.52 µM
12,CS(=O)(=O)ON1C(=O)c2ccc(N)cc2C1=O,inactive: > 100 µM
13,CN(C)c1ccc(/C=C(\NC(=O)c2ccccc2)c2nc3cncnc3[nH]2)cc1,inactive: > 100 µM
14,Cc1cc(N(CCC#N)CCC#N)ccc1/C=C1N=C(/C=C/c2ccccc2)N(c2ccc(S(N)(=O)=O)cc2)C\1=O,inactive: > 100 µM
15,COc1ccc(OC(C(=O)O)C(C)C)c2c1CCCC2=O (stereo not drawn),inactive: > 100 µM
16,Cn1c2c(c3ccccc31)CCN(CCCCN1CCc3c(n(C)c4ccccc34)C1=O)C2,inactive: > 100 µM
17,O=C(c1ccc(Cl)cc1)N(C(=S)OCCOc1ccccc1)c1ccccc1,inactive: 21.4 µM
18,OCCCN=C1CCCCC1,inactive: > 100 µM
19,CC(C)[Si]1(C(C)C)OCC2OC(n3cnc4c(N)ncnc43)C(N)C2O[Si](C(C)C)(C(C)C)O1 (stereo not drawn),inactive: 22.9 µM
20,Cc1ccc(OCC2OC(n3cnc4nc(Nc5ccc(Cl)c(Cl)c5)nc(Cl)c43)CC2Oc2ccc(C)cc2)cc1 (stereo not drawn),inactive: > 100 µM
21,O=C(N/N=C/c1ccc([N+](=O)[O-])cc1)Nc1ccc(Br)cc1,inactive: > 100 µM

row,SMILES,GI50
1,COC(=O)/C=C/C1(O)C=CC(=O)C=C1,inactive: 15 µM
2,CC(C)C12Cc3c(ccc4ccccc34)OC1(C)Oc1ccc3ccccc3c1C2 (stereo not drawn),inactive: > 100 µM
3,OC1CC1Sc1ccccc1 (stereo not drawn),inactive: 77.4 µM
4,CCOC(=O)c1cc2c3c(c(C(C)=O)c(OC)c2[nH]1)N(C(=O)CC)CC3,inactive: 12.7 µM
5,CC1(C)C2CCC1(C)C(N/C(=C(/C(Cl)=C(Cl)Cl)[N+](=O)[O-])n1nnc3ccccc31)C2 (stereo not drawn),inactive: 36.6 µM
6,COc1nn(Cc2ccccc2F)c2ccc([N+](=O)[O-])cc12,inactive: > 100 µM
7,COC(=O)[C@@](C)(COC(=O)C(C)(C)C)NC(=O)OC(C)(C)C,inactive: > 100 µM
8,Clc1ccc(OCc2nnc(CCCCCCCCc3nnc(COc4ccc(Cl)cc4)o3)o2)cc1,inactive: > 100 µM
9,COc1ccc(C2=C(N)c3cc(OC)ccc3C2=O)cc1,inactive: > 100 µM
10,O=C(Cn1c2c(c3ccccc31)CCCC2)N1CCCC1,inactive: > 100 µM
11,COc1cccc(NC(=O)C(C)(C)C)c1C=O,inactive: > 100 µM
12,Cc1c(-c2ccccc2)nn2cc(-c3ccccc3)nnc12,inactive: 17.7 µM
13,COC12OCCN(C)C1=CC(=O)C1(C)N=NCC12 (stereo not drawn),inactive: > 100 µM
14,NNC(=O)CC(=O)Nc1ccc(S(=O)(=O)c2ccc(NC(=O)CC(=O)NN)cc2)cc1,inactive: > 100 µM
15,O=C1OC(C(O)CO)C(O)=C1O (stereo not drawn),inactive: > 100 µM
16,COC(=O)c1c(C(=O)OC)c2ccccn2c1-c1cc(OC)c(Br)c(=O)o1,inactive: > 100 µM
17,COCOc1ccc(C(=O)C(C)c2ccc(OCOC)cc2OCOC)c(O)c1 (stereo not drawn),inactive: > 10 µM
18,O=C(c1c2c(cc3c1CC1(Cc4cc5c(cc4C1)CCCC5)C3)CCCC2)C(Br)Br,inactive: > 57.7 µM
19,CC(=O)c1cccc(NC(=O)C(=O)C(C2OC(=O)c3ccccc32)[N+](=O)[O-])c1 (stereo not drawn),inactive: > 100 µM
20,COc1ccc(-c2c3c(n(C4OC(CO)C(O)C(O)C4O)c(=S)c2C#N)CC(C)(C)CC3=O)cc1 (stereo not drawn),inactive: > 100 µM
21,COc1ccc(/N=C2\C(=O)C3=C(OC(C)(C)CC3)c3ccccc32)cc1,inactive: 1.88 µM

row,SMILES,GI50
1,Cc1ccc2c(c1)C(C1Cc3cccc(C)c3C1=O)OC2=O (stereo not drawn),inactive: > 100 µM
2,O=C(CC(=O)n1nc(-c2ccccc2)c(/N=N/c2ccc([N+](=O)[O-])cc2)c1-c1ccccc1)Nc1ccc(Cl)cc1,inactive: 29.7 µM
3,Oc1ccc(C(O)C2CCCCN2)cc1O (stereo not drawn) [RIMITEROL HYDROBROMIDE],inactive: > 100 µM
4,C[C@]1(CO)[C@H]2CC[C@@]34C=C[C@@](CO)(CC[C@H]3[C@]2(C)CC[C@H]1O)C4,inactive: > 100 µM
5,Cc1ccc(S(=O)(=O)c2ccccc2[N+](=O)[O-])cc1,inactive: 72.4 µM
6,O=C(O)C(SC1=NC(=O)C2(NN1)c1ccccc1-c1ccccc12)SC1=NC(=O)C2(NN1)c1ccccc1-c1ccccc12,inactive: > 10 µM
7,NC(CCc1ncc(-c2ccccc2)s1)C(=O)O (stereo not drawn),inactive: > 100 µM
8,O=C1c2c(ccc3c2CCC3)CC12Cc1cc3c(cc1C2)CCC3,inactive: > 100 µM
9,N#Cc1c(N)n(-c2cccc(C(=O)O)c2)c(=O)c2cc([N+](=O)[O-])ccc12,inactive: > 100 µM
10,CCCCCCCCCCCCCCCCCCNc1ccn(C2OC(COP(=O)(O)OCC3OC(n4ccc(N)nc4=O)C(O)C3O)C(O)C2O)c(=O)n1 (stereo not drawn),inactive: 54 µM
11,O=C1OC(=O)C2C1C1C(c3ccccc3)=C(c3ccccc3)C2(O)C2C(=O)OC(=O)C12 (stereo not drawn),inactive: > 100 µM
12,CC(=O)NC1C(OCC(=O)NC(C)C(=O)NC(CCC(=O)NCCCCCNc2ccc([N+](=O)[O-])c3[nH]c4ccccc4c(=O)c23)C(N)=O)C(O)C(CO)OC1(C)OCc1ccccc1 (stereo not drawn),inactive: > 50 µM
13,C[C@@H](NC(C#N)c1ccco1)c1ccccc1 (stereo partly drawn),inactive: > 100 µM
14,COc1cccc(/C(CC(O)(C(F)(F)F)C(F)(F)F)=N\N(C)C)c1,inactive: > 100 µM
15,Cn1c(=O)c2c(nc3n(CC(O)CCl)c(=O)ccn23)n(C)c1=O (stereo not drawn),inactive: 57.1 µM
16,CCCCCCCCCCc1c2nc(c(CCCCCCCCCC)c3ccc([nH]3)c(CCCCCCCCCC)c3nc(c(CCCCCCCCCC)c4ccc1[nH]4)C=C3)C=C2,inactive: > 100 µM
17,Cc1n[nH]c(=S)n(C)c1=S,inactive: > 100 µM
18,O=C(O)CCC1c2[nH]c3ccccc3c2CCN1Cc1ccccc1 (stereo not drawn),inactive: > 100 µM
19,CC(=O)OCC1OC(O/C=C(\CN=[N+]=[N-])C(C)=O)C(OC(C)=O)C(OC(C)=O)C1OC(C)=O (stereo not drawn),inactive: 22 µM
20,O/N=C1/Nc2cc(Cl)ccc2C(=S)N2CSCC12 (stereo not drawn),inactive: > 100 µM
21,O=C(NNC(=O)c1ccccc1O)c1ccccc1O,inactive: 1.18 µM
